# From the supplement of paper PMC8728848
# This is one part of the list.
# B1: LngA (Escherichia coli) (protein)
# chain: MLSVYNRTQKFKAEARKKIAKYHELRKQRGMSLLEVIIVLGIIGTIAAGVVILAQRAFDSRAVTDLVTNTNTVRVRMKDAYQRDGKYPDFVDPLSLTANTIKTDTSGIPAAQLVQLGKITPDEVRNNISGDFIAIGGALTSNGAQVKKGFAIELNGLSQEQCRSILGQVGNNWEYVAIGTSASGSYAMTATGVDMSVAASTTVLRSLGNNGQTTLTADKILSTCTAQVNSITLGSR
# Legend:
# Assay in all cases: glycan array binding signal (z-score within array); higher = stronger binding
# Conditions in all cases: glycan notation: IUPAC condensed, linker removed
# [1] = biological target: GlcNAc(b1-3)Gal(b1-4)Glc
# Procedure, shortened: (§1)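 Glycan array data were curated from 3228 arrays in the Consortium for Functional Glycomics database and kept only where the protein sequence was available. Glycan names were converted to IUPAC-condensed notation, and columns mapping to the same glycan were averaged. The binding signal is a within-array Z-score, averaged across arrays of the same protein sequence at different concentrations or buffers and across linkers. Negative Z-scores can be read as non-binding.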
# [2] = biological target: GlcNAc(b1-3)Gal(b1-4)GlcNAc
# Procedure, shortened: as §1
# [3] = biological target: GlcNAc(b1-3)Gal(b1-4)GlcNAc(b1-2)Man(a1-3)[GlcNAc(b1-3)Gal(b1-4)GlcNAc(b1-2)Man(a1-6)]Man(b1-4)GlcNAc(b1-4)GlcNAc
# Procedure, shortened: as §1
# [4] = biological target: GlcNAc(b1-3)Gal(b1-4)GlcNAc(b1-2)Man(a1-3)[GlcNAc(b1-3)Gal(b1-4)GlcNAc(b1-2)Man(a1-6)]Man(b1-4)GlcNAc(b1-4)[Fuc(a1-6)]GlcNAc
# Procedure, shortened: as §1
# [5] = biological target: GlcNAc(b1-3)Gal(b1-4)GlcNAc(b1-2)[GlcNAc(b1-3)Gal(b1-4)GlcNAc(b1-6)]Man(a1-6)[GlcNAc(b1-3)Gal(b1-4)GlcNAc(b1-2)Man(a1-3)]Man(b1-4)GlcNAc(b1-4)GlcNAc
# Procedure, shortened: as §1
# [6] = biological target: GlcNAc(b1-3)Gal(b1-4)GlcNAc(b1-3)Gal(b1-4)GlcNAc
# Procedure, shortened: as §1
# [7] = biological target: GlcNAc(b1-3)Gal(b1-4)GlcNAc(b1-3)Gal(b1-4)GlcNAc(b1-2)Man(a1-3)[GlcNAc(b1-3)Gal(b1-4)GlcNAc(b1-3)Gal(b1-4)GlcNAc(b1-2)Man(a1-6)]Man(b1-4)GlcNAc(b1-4)GlcNAc
# Procedure, shortened: as §1
# [8] = biological target: GlcNAc(b1-3)Gal(b1-4)GlcNAc(b1-3)Gal(b1-4)GlcNAc(b1-2)Man(a1-3)[GlcNAc(b1-3)Gal(b1-4)GlcNAc(b1-3)Gal(b1-4)GlcNAc(b1-2)Man(a1-6)]Man(b1-4)GlcNAc(b1-4)[Fuc(a1-6)]GlcNAc
# Procedure, shortened: as §1
# [9] = biological target: GlcNAc(b1-3)Gal(b1-4)GlcNAc(b1-3)Gal(b1-4)GlcNAc(b1-2)[GlcNAc(b1-3)Gal(b1-4)GlcNAc(b1-3)Gal(b1-4)GlcNAc(b1-6)]Man(a1-6)[GlcNAc(b1-3)Gal(b1-4)GlcNAc(b1-3)Gal(b1-4)GlcNAc(b1-2)Man(a1-3)]Man(b1-4)GlcNAc(b1-4)[Fuc(a1-6)]GlcNAc
# Procedure, shortened: as §1
# [10] = biological target: GlcNAc(b1-3)Gal(b1-4)GlcNAc(b1-3)Gal(b1-4)GlcNAc(b1-3)Gal(b1-4)GlcNAc(b1-2)Man(a1-3)[GlcNAc(b1-3)Gal(b1-4)GlcNAc(b1-3)Gal(b1-4)GlcNAc(b1-3)Gal(b1-4)GlcNAc(b1-2)Man(a1-6)]Man(b1-4)GlcNAc(b1-4)GlcNAc
# Procedure, shortened: as §1
# [11] = biological target: GlcNAc(b1-3)Gal(b1-4)GlcNAc(b1-3)Gal(b1-4)GlcNAc(b1-3)Gal(b1-4)GlcNAc(b1-2)Man(a1-3)[GlcNAc(b1-3)Gal(b1-4)GlcNAc(b1-3)Gal(b1-4)GlcNAc(b1-3)Gal(b1-4)GlcNAc(b1-2)Man(a1-6)]Man(b1-4)GlcNAc(b1-4)[Fuc(a1-6)]GlcNAc
# Procedure, shortened: as §1
# [12] = biological target: GlcNAc(b1-3)Gal(b1-4)GlcNAc(b1-3)Gal(b1-4)GlcNAc(b1-3)Gal(b1-4)GlcNAc(b1-2)[GlcNAc(b1-3)Gal(b1-4)GlcNAc(b1-3)Gal(b1-4)GlcNAc(b1-3)Gal(b1-4)GlcNAc(b1-6)]Man(a1-6)[GlcNAc(b1-3)Gal(b1-4)GlcNAc(b1-3)Gal(b1-4)GlcNAc(b1-3)Gal(b1-4)GlcNAc(b1-2)Man(a1-3)]Man(b1-4)GlcNAc(b1-4)[Fuc(a1-6)]GlcNAc
# Procedure, shortened: as §1
# [13] = biological target: GlcNAc(b1-3)Gal(b1-4)GlcNAc(b1-3)Gal(b1-4)GlcNAc(b1-3)Gal(b1-4)GlcNAc(b1-3)Gal(b1-4)GlcNAc(b1-2)Man(a1-3)[GlcNAc(b1-3)Gal(b1-4)GlcNAc(b1-3)Gal(b1-4)GlcNAc(b1-3)Gal(b1-4)GlcNAc(b1-3)Gal(b1-4)GlcNAc(b1-2)Man(a1-6)]Man(b1-4)GlcNAc(b1-4)GlcNAc
# Procedure, shortened: as §1
# [14] = biological target: GlcNAc(b1-3)Gal(b1-4)GlcNAc(b1-3)Gal(b1-4)GlcNAc(b1-3)Gal(b1-4)GlcNAc(b1-3)Gal(b1-4)GlcNAc(b1-2)Man(a1-3)[GlcNAc(b1-3)Gal(b1-4)GlcNAc(b1-3)Gal(b1-4)GlcNAc(b1-3)Gal(b1-4)GlcNAc(b1-3)Gal(b1-4)GlcNAc(b1-2)Man(a1-6)]Man(b1-4)GlcNAc(b1-4)[Fuc(a1-6)]GlcNAc
# Procedure, shortened: as §1
# [15] = biological target: GlcNAc(b1-3)Gal(b1-4)GlcNAc(b1-3)Gal(b1-4)GlcNAc(b1-3)Gal(b1-4)GlcNAc(b1-3)Gal(b1-4)GlcNAc(b1-2)[GlcNAc(b1-3)Gal(b1-4)GlcNAc(b1-3)Gal(b1-4)GlcNAc(b1-3)Gal(b1-4)GlcNAc(b1-3)Gal(b1-4)GlcNAc(b1-6)]Man(a1-6)[GlcNAc(b1-3)Gal(b1-4)GlcNAc(b1-3)Gal(b1-4)GlcNAc(b1-3)Gal(b1-4)GlcNAc(b1-3)Gal(b1-4)GlcNAc(b1-2)Man(a1-3)]Man(b1-4)GlcNAc(b1-4)[Fuc(a1-6)]GlcNAc
# Procedure, shortened: as §1
# [16] = biological target: GlcNAc(b1-3)Gal(b1-4)GlcNAc(b1-3)Gal(b1-4)GlcNAc(b1-3)GalNAc
# Procedure, shortened: as §1
# [17] = biological target: GlcNAc(b1-3)Gal(b1-4)GlcNAc(b1-3)GalNAc
# Procedure, shortened: as §1
# [18] = biological target: GlcNAc(b1-3)Gal(b1-4)GlcNAc(b1-3)[GlcNAc(b1-3)Gal(b1-4)GlcNAc(b1-3)]GalNAc
# Procedure, shortened: as §1
# [19] = biological target: GlcNAc(b1-3)Gal(b1-4)GlcNAc(b1-6)[Gal(b1-3)]GalNAc
# Procedure, shortened: as §1
# [20] = biological target: GlcNAc(b1-3)Gal(b1-4)GlcNAc(b1-6)[GlcNAc(b1-3)Gal(b1-3)]GalNAc
# Procedure, shortened: as §1
# [21] = biological target: GlcNAc(b1-3)Gal(b1-4)GlcNAc(b1-6)[GlcNAc(b1-3)]Gal(b1-4)GlcNAc
# Procedure, shortened: as §1
# [22] = biological target: GlcNAc(b1-3)GalNAc
# Procedure, shortened: as §1
# [23] = biological target: GlcNAc(b1-3)Man
# Procedure, shortened: as §1
# [24] = biological target: GlcNAc(b1-3)[GlcNAc(b1-4)][GlcNAc(b1-6)]GlcNAc
# Procedure, shortened: as §1
# [25] = biological target: GlcNAc(b1-3)[GlcNAc(b1-6)]Gal(b1-4)GlcNAc
# Procedure, shortened: as §1
# [26] = biological target: GlcNAc(b1-3)[GlcNAc(b1-6)]GalNAc
# Procedure, shortened: as §1
# [27] = biological target: GlcNAc(b1-4)Gal(b1-4)GlcNAc
# Procedure, shortened: as §1
# [28] = biological target: GlcNAc(b1-4)GlcNAc
# Procedure, shortened: as §1
# [29] = biological target: GlcNAc(b1-4)GlcNAc(b1-4)GlcNAc
# Procedure, shortened: as §1
# [30] = biological target: GlcNAc(b1-4)GlcNAc(b1-4)GlcNAc(b1-4)GlcNAc(b1-4)GlcNAc
# Procedure, shortened: as §1
# [31] = biological target: GlcNAc(b1-4)GlcNAc(b1-4)GlcNAc(b1-4)GlcNAc(b1-4)GlcNAc(b1-4)GlcNAc
# Procedure, shortened: as §1
# [32] = biological target: GlcNAc(b1-4)[GlcNAc(b1-6)]GalNAc
# Procedure, shortened: as §1
# [33] = biological target: GlcNAc(b1-6)Gal(b1-4)GlcNAc
# Procedure, shortened: as §1
# [34] = biological target: GlcNAc(b1-6)GalNAc
# Procedure, shortened: as §1
# [35] = biological target: GlcNAc6S(b1-3)Gal(b1-4)GlcNAc
# Procedure, shortened: as §1
# [36] = biological target: Kdn(a2-3)Gal(b1-3)GalNAc
# Procedure, shortened: as §1
# [37] = biological target: Kdn(a2-3)Gal(b1-3)GlcNAc
# Procedure, shortened: as §1
# [38] = biological target: Kdn(a2-3)Gal(b1-4)Glc
# Procedure, shortened: as §1
# [39] = biological target: Kdn(a2-3)Gal(b1-4)GlcNAc
# Procedure, shortened: as §1
# [40] = biological target: Kdn(a2-3)Gal(b1-4)[Fuc(a1-3)]GlcNAc
# Procedure, shortened: as §1
# [41] = biological target: Kdn(a2-6)Gal(b1-4)GlcNAc
# Procedure, shortened: as §1
# [42] = biological target: Man(a1-2)Man(a1-2)Man(a1-3)Man
# Procedure, shortened: as §1
# [43] = biological target: Man(a1-2)Man(a1-2)Man(a1-6)[Man(a1-3)]Man
# Procedure, shortened: as §1
# [44] = biological target: Man(a1-2)Man(a1-3)Man
# Procedure, shortened: as §1
# [45] = biological target: Man(a1-2)Man(a1-3)[Man(a1-2)Man(a1-6)]Man
# Procedure, shortened: as §1
binder,measurement,setting,value
B1,glycan array binding signal (z-score),[1],-0.256
same,glycan array binding signal (z-score),[2],-0.529
same,glycan array binding signal (z-score),[3],0.933
same,glycan array binding signal (z-score),[4],-0.313
same,glycan array binding signal (z-score),[5],0.443
same,glycan array binding signal (z-score),[6],-0.517
same,glycan array binding signal (z-score),[7],0.704
same,glycan array binding signal (z-score),[8],-0.164
same,glycan array binding signal (z-score),[9],-0.371
same,glycan array binding signal (z-score),[10],-0.297
same,glycan array binding signal (z-score),[11],0.452
same,glycan array binding signal (z-score),[12],-0.29
same,glycan array binding signal (z-score),[13],1.02
same,glycan array binding signal (z-score),[14],-0.422
same,glycan array binding signal (z-score),[15],-0.386
same,glycan array binding signal (z-score),[16],-0.215
same,glycan array binding signal (z-score),[17],-0.422
same,glycan array binding signal (z-score),[18],-0.298
same,glycan array binding signal (z-score),[19],-0.006
same,glycan array binding signal (z-score),[20],-0.435
same,glycan array binding signal (z-score),[21],-0.495
same,glycan array binding signal (z-score),[22],-0.269
same,glycan array binding signal (z-score),[23],-0.148
same,glycan array binding signal (z-score),[24],-0.366
same,glycan array binding signal (z-score),[25],-0.527
same,glycan array binding signal (z-score),[26],-0.436
same,glycan array binding signal (z-score),[27],-0.526
same,glycan array binding signal (z-score),[28],-0.47
same,glycan array binding signal (z-score),[29],-0.387
same,glycan array binding signal (z-score),[30],-0.257
same,glycan array binding signal (z-score),[31],0.247
same,glycan array binding signal (z-score),[32],-0.365
same,glycan array binding signal (z-score),[33],-0.431
same,glycan array binding signal (z-score),[34],-0.392
same,glycan array binding signal (z-score),[35],-0.464
same,glycan array binding signal (z-score),[36],-0.202
same,glycan array binding signal (z-score),[37],-0.498
same,glycan array binding signal (z-score),[38],-0.315
same,glycan array binding signal (z-score),[39],-0.197
same,glycan array binding signal (z-score),[40],-0.229
same,glycan array binding signal (z-score),[41],-0.452
same,glycan array binding signal (z-score),[42],-0.556
same,glycan array binding signal (z-score),[43],-0.413
same,glycan array binding signal (z-score),[44],-0.362
same,glycan array binding signal (z-score),[45],-0.54
